From PubChem BioAssay AID485294 (National Center for Advancing Translational Sciences (NCATS), 2010)
About 150 (0.041%) of roughly 370,000 compounds were called active. This list was built around the results that the source calls inconclusive (neither active nor inactive); the mix of calls is not that of the screen. Calls come from the whole dose curve; as a rule, active = well fitted inhibition curve with a large enough effect; inconclusive = small, poorly fitted or top-dose-only effect; inactive = flat fitted curve, though single readings scatter. Potencies of inconclusive entries are left out as doubtful fits.
Note: nearly all actives have a fitted effect of over 25% in size.
Potency is the fitted concentration of half-maximal effect; tags give direction and shape of the fitted curve.

The compounds below were run against Beta-lactamase (Escherichia coli (strain K12)) (UniProt P00811) (assay: qHTS Inhibitors of AmpC Beta-Lactamase (assay with detergent)). Details: AmpC hydrolysis of nitrocefin, absorbance 480 nm, 0.01% Triton; series mostly up to 114 µM.
Chain of UniProt P00811 (P00811 whole entry, looked up): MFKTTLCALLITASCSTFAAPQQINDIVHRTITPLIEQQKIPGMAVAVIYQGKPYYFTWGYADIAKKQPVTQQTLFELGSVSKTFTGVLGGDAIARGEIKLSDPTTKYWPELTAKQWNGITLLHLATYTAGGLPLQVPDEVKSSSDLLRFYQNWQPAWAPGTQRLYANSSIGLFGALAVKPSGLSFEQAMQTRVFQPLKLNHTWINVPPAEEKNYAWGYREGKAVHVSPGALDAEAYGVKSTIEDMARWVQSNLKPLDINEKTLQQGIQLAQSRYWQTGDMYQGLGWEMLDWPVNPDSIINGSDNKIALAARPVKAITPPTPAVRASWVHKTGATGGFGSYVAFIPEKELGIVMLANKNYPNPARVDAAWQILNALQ
In short: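 20 mM phosphate pH 7.0 + 0.01% (detergent screen) or 0.0001% Triton X-100; 5.3 nM AmpC reagent; cpd preinc 15 min RT; nitrocefin (800 uM stock) to start; A480 q20 s × 4 min; Activity was normalised to no-enzyme and no-compound control wells.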
With `O=C(CSc1nc2ccccc2c(=O)n1Cc1ccc(Cl)cc1)NCc1cccs1` the Potency was inconclusive [inhibitor, full curve]. In the case of `O=C(CSc1nc2ccccc2c(=O)n1-c1ccc(F)cc1)Nc1ccc(N2CCOCC2)cc1`, the Potency is reported as “inactive”. In the case of `CC(=O)c1ccc(NC(=O)C2CCCN2S(=O)(=O)c2ccc(C)cc2)cc1` (configuration not stated), the Potency is reported as inconclusive [inhibitor, full curve, poor fit]. `CCOC(=O)Cn1c(CN2CC(C)OC(C)C2)nc2c1c(=O)n(C)c(=O)n2C` (configuration not stated) was tested, and the Potency was inconclusive [inhibitor, single point]. With `CC1(C)CC(=O)C(C=NCCN2CCN(C(=O)Cc3ccc(F)cc3)CC2)=C(O)C1` the Potency was “inactive”. With `Nc1nc2ccccc2n1CCOc1ccc(F)cc1` the Potency was inconclusive [inhibitor, full curve, poor fit]. With `CC(Cc1ccccc1)NCCC(c1ccccc1)c1ccccc1` (configuration not stated) the Potency was inconclusive [inhibitor, full curve, poor fit]. In the case of `COc1ccc(-n2c(=O)c(CCC(=O)N(C)Cc3cccs3)nc3ccccc32)cc1`, the Potency is reported as inconclusive [inhibitor, full curve, poor fit]. In the case of `COCCCNC(=S)N1CCC(C(=O)c2ccc(Cl)cc2)CC1`, the Potency is reported as inconclusive [inhibitor, full curve]. With `Cc1cccn2c(NCc3ccc4c(c3)OCO4)c(-c3ccc(O)cc3)nc12` the Potency was inconclusive [inhibitor, partial curve]. `CCOc1ccccc1C(=O)N(Cc1ccco1)Cc1ccccc1F` was tested, and the Potency was “inactive”. In the case of `Cc1ccc2c(c1)c1ncnc(N3CCOCC3)c1n2C`, the Potency is reported as inconclusive [inhibitor, partial curve, poor fit]. For `Cc1cccc(N2C(=O)NC(=O)/C(=C\c3cnn(-c4ccccc4)c3)C2=O)c1`, the Potency was inconclusive [inhibitor, partial curve]. With `COc1cc(/C=N/OCC(=O)Nc2cc(C)cc(C)c2)ccc1OCc1ccc(Cl)cc1` the Potency was inconclusive [inhibitor, single point]. `CCc1nnc(NC(=O)CN2CCCC(C)C2)s1` (configuration not stated) was tested, and the Potency was “inactive”. For `CCCCN(C(=O)CSc1nnc(-c2ccc(Cl)cc2)o1)c1c(N)n(CC(C)C)c(=O)[nH]c1=O`, the Potency was “inactive”. In the case of `C/C(=N\NS(=O)(=O)c1ccc([N+](=O)[O-])cc1)c1c[nH]c2ccccc12`, the Potency is reported as inconclusive [inhibitor, full curve, poor fit]. For `CCN(CC)S(=O)(=O)c1ccc(N2C(=O)CC2(/C=C/c2ccccc2)C(=O)NC2CCCC2)cc1` (configuration not stated), the Potency was “inactive”. In the case of `CC(C)(C)CC(C)(C)NC(=S)Nc1ccc(S(=O)(=O)N2CCOCC2)cc1`, the Potency is reported as inconclusive [inhibitor, full curve, poor fit]. For `C=CCOn1c(=O)c(-c2ccccc2)[n+]([O-])c2ccccc21`, the Potency was inconclusive [inhibitor, single point]. With `COc1ccc(NC(=O)c2ccc(COCC(F)(F)C(F)F)cc2)cc1OC` the Potency was inconclusive [inhibitor, single point]. In the case of `O=C(NC1CCCCC1)NC1CCN(S(=O)(=O)Cc2ccccc2)CC1`, the Potency is reported as inconclusive [inhibitor, full curve, poor fit]. `COc1ccc(OC)c(S(=O)(=O)N2CCC(C(=O)NC(C)c3ccccc3)CC2)c1` (configuration not stated) was tested, and the Potency was inconclusive [inhibitor, partial curve, poor fit]. For `CC(C)CC(=O)Nc1ccc(N2CCOCC2)cc1`, the Potency was inconclusive [inhibitor, full curve, poor fit]. In the case of `COC(=O)c1sc2ccccc2c1NC(=O)c1ccc(S(=O)(=O)N2CCCCC2C)cc1` (configuration not stated), the Potency is reported as “inactive”. With `CCCCCC(=O)O/N=C(\C)c1ccn(S(=O)(=O)c2ccccc2)c1` the Potency was inconclusive [inhibitor, full curve, poor fit]. `O=C(NCc1ccco1)c1cnn2c1NC(c1ccccc1)CC2C(F)(F)F` (configuration not stated) was tested, and the Potency was inconclusive [inhibitor, full curve, poor fit]. With `COC(=O)c1cc(OC)c(OC)cc1NC(=O)c1ccc(C)o1` the Potency was inconclusive [inhibitor, partial curve, poor fit]. In the case of `CCCCNC(=O)C(c1ccc(OCC(=O)OC)c(C(=O)OC)c1)N(CCc1ccccc1)C(=O)CCCCCN1C(=O)NC(c2ccc(-c3ccccc3)cc2)C(C(=O)OCc2ccccc2)=C1C` (configuration not stated), the Potency is reported as “inactive”. `CCCCN1CCc2c(c3ccccc3n2Cc2ccccc2)C1` was tested, and the Potency was “inactive”. With `Cc1c(Cl)c([N+](=O)[O-])nn1CC(=O)NCCCN1CCOCC1` the Potency was inconclusive [inhibitor, partial curve, poor fit]. With `O=C(Nc1cccc([N+](=O)[O-])c1)Nc1cnccn1` the Potency was “inactive”. `Cc1oc(-c2cccc(Cl)c2)nc1CSCC(=O)NCc1ccccc1Cl` was tested, and the Potency was inconclusive [inhibitor, partial curve]. In the case of `O=C(Nc1ccccc1)Nc1nc(-c2ccccc2)cs1`, the Potency is reported as “inactive”. For `COc1cc(OC)cc(C(=O)NC(C(=O)Nc2ccc3nc(C)sc3c2)C(C)C)c1` (configuration not stated), the Potency was inconclusive [inhibitor, partial curve, poor fit]. With `COc1ccc(S(=O)(=O)N2Cc3ccccc3CC2C(=O)Nc2ccc3c(c2)OCO3)cc1` (configuration not stated) the Potency was “inactive”. With `O=C(OCc1nnc(-c2ccccc2)o1)c1ccc(-n2cnnn2)cc1` the Potency was “inactive”. For `C=CC[n+]1c(C)csc1Nc1ccc(C)cc1`, the Potency was “inactive”. For `CCCOc1ccc(C2C(C(=O)c3ccc(C)o3)=C(O)C(=O)N2Cc2ccco2)cc1OCC` (configuration not stated), the Potency was inconclusive [inhibitor, full curve]. In the case of `COc1cccc(-c2noc(CCCC(=O)N3CCOCC3)n2)c1`, the Potency is reported as “inactive”. `COCCN(C(=O)CSc1ncc(C(F)(F)F)cc1Cl)c1c(N)n(Cc2ccccc2)c(=O)[nH]c1=O` was tested, and the Potency was “inactive”. With `COc1cc(C2C(C#N)=C(N)Oc3c2oc(CO)cc3=O)cc(OC)c1OC` (configuration not stated) the Potency was inconclusive [inhibitor, partial curve, poor fit]. In the case of `Clc1cccc(CSc2ccc(-c3cccs3)nn2)c1`, the Potency is reported as “inactive”. `CCOC(=O)C1C(=O)NC(c2ccccc2)=NC1c1ccc(F)cc1` (configuration not stated) was tested, and the Potency was “inactive”. In the case of `N#CC(C#N)=C1c2cc(S(=O)(=O)NCCO)ccc2-c2ccc(S(=O)(=O)NCCO)cc21`, the Potency is reported as “inactive”. For `CCCCNC(=O)CC1N=C2c3ccccc3N=C(SCC(=O)Nc3ccc(OC)cc3)N2C1=O` (configuration not stated), the Potency was inconclusive [inhibitor, single point]. `Cc1cc(C)c2nc(/N=C(\N)NC(=O)c3ccccc3)nc(C)c2c1` was tested, and the Potency was inconclusive [inhibitor, full curve, poor fit]. In the case of `O=C(N/N=C/c1ccncc1)c1ccc(NC(=O)c2cccc(Cl)c2)cc1`, the Potency is reported as inconclusive [inhibitor, single point]. In the case of `CC1CCCC2(C1)NC(=S)c1c(sc3c1CCCC3)N2` (configuration not stated), the Potency is reported as “inactive”. For `CCN1C(=O)C2C(c3ccc(O)c(OC)c3)NC(C)(C(=O)OC)C2C1=O` (configuration not stated), the Potency was inconclusive [inhibitor, full curve, poor fit]. With `O=C(Nn1c(-c2ccccc2)nc2ccccc2c1=O)C1CCC1` the Potency was inconclusive [inhibitor, full curve, poor fit]. For `Cc1cccc(C(=O)Nc2ccc3ccccc3c2)c1`, the Potency was “inactive”. With `CCc1ccc2[nH]c(=O)c(Cc3ccccc3)c(O)c2c1` the Potency was inconclusive [inhibitor, full curve, poor fit]. For `O=C(CN1CCC(NC(=O)Nc2ccccc2)CC1)Nc1cccc([N+](=O)[O-])c1`, the Potency was inconclusive [inhibitor, partial curve]. With `Cc1noc(C)c1C(=O)OCC(=O)NC(=O)NC12CC3CC(CC(C3)C1)C2` the Potency was inconclusive [inhibitor, full curve, poor fit]. For `CCN1CCN(Cc2ccc(NC(=O)c3ccc(C)c(NC(=O)c4nccnc4N)c3)cc2C(F)(F)F)CC1`, the Potency was “inactive”. In the case of `COC(=O)COc1ccc(S(=O)(=O)NCCC2=CCCCC2)cc1C`, the Potency is reported as “inactive”. With `CCn1c(=O)n(CC(=O)N(C)Cc2ccccc2)c(=O)c2ccccc21` the Potency was inconclusive [inhibitor, single point]. `CC(C)(C)c1ccc(-c2nnc(SCC(=O)NC3CC3)o2)cc1` was tested, and the Potency was inconclusive [inhibitor, single point]. With `Cc1cc(=O)oc2cc(OCCSCCN3CCOCC3)ccc12` the Potency was inconclusive [inhibitor, single point]. For `CCOC(=O)c1oc2ccc(S(=O)(=O)N3CCC(C)CC3)cc2c1C`, the Potency was inconclusive [inhibitor, partial curve, poor fit]. In the case of `COc1ccc(F)c(CN(C)CC2CCCN(CCc3ccc(F)cc3)C2)c1` (configuration not stated), the Potency is reported as “inactive”. In the case of `CCCc1cc(=O)oc2cc(OCC(=O)NCCc3c[nH]c4ccc(OC)cc34)ccc12`, the Potency is reported as inconclusive [inhibitor, full curve, poor fit]. In the case of `Cn1c(=O)c(NC2CCCCC2)c2c3c(cccc31)C(=O)c1ccccc1-2`, the Potency is reported as “inactive”. With `COc1cccc(C(=O)N/N=C(\CC(C)C)c2ccccc2)c1` the Potency was inconclusive [inhibitor, partial curve]. `Cc1nn(-c2ccccc2)c(Cl)c1C(=O)OCC(=O)N(C)c1c(N)n(Cc2ccccc2)c(=O)[nH]c1=O` was tested, and the Potency was inconclusive [inhibitor, full curve, poor fit]. In the case of `Cc1onc(C(=O)N2CCN(c3ccccc3)CC2)c1[N+](=O)[O-]`, the Potency is reported as “inactive”.
